This note sets out measurements from PubChem BioAssay (NCI).

Several values for one entry are separate records, joined by “and”; a condition that tells them apart may be missing. Equal entries are not always repeated.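 Five compound concentrations were applied to cells in 96-well plates for 48 hours; endpoints were derived by simple linear interpolation of the resulting dose-response curve. GI50 = concentration required for 50% inhibition of growth. At the TGI there is no net growth.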 Numbered stars: 1 amine (or outer) side, 2 acyl side, 3 side chain; on linkers, the order of the positions; unused ones are H or OH. Bridge positions count the residues as written; N and C are the ends. Square brackets hold non-standard residues; d marks the D form. Peptide text beside a SMILES is read from it. Adda = CO[C@@H](Cc1ccccc1)[C@@H](C)/C=C(C)/C=C/[C@H](N[*:1])[C@H](C)C(=O)[*:2]; dAsp(3S-Me) = C[C@H](C(=O)[*:3])[C@@H](N[*:1])C(=O)[*:2]; d(γGlu) = O=C(O)[C@@H](CCC(=O)[*:2])N[*:1]; NMeDha = C=C(NC)C(=O)O

The assay relates to NCI-H322M lung. The experiment in a line: NCI-60 cell line screen, 48 h.
Compound `COc1cc(S(=O)(=O)Nc2nc(-c3ccc(N=Cc4cccs4)cc3)cs2)ccc1Cl` displayed a TGI above 100 µM. `S=C(S)N1CCN(c2cccc(Cl)c2)CC1` yielded a TGI above 100 µM.

`O=C(O)c1cccc2cccc(-c3c4ccc(=O)cc-4oc4cc(O)ccc34)c12`: the TGI is above 100 µM. Still for that read-out and setting: the result for `c1ccc2c(c1)nc1n2sc2nc3ccccc3n21` reads above 100 µM. On to `O=C(Nc1cccc(-n2cc(-c3ccncc3)c(-c3ccc(Cl)c(O)c3)n2)c1)Nc1ccc(Cl)c(C(F)(F)F)c1`, for which the GI50 was 1.11 µM and the TGI was found to be 4.79 µM. The corresponding values for `O=c1c2ccc3cccc4c(=O)c5ccc6cccc1c6c5-c2c34` are above 50 µM and above 50 µM. The corresponding values for `CN(C)CCCOc1ccc(OCCCN(C)C)c2c1C(=O)c1ccccc1C2=O` are 0.852 µM and 6.6 µM.

In turn, `Cn1c(O)c(C2=Nc3ccccc3C2=O)c2ccccc21` came in with a TGI above 100 µM.

`CN(C)Cc1cc(N=Nc2ccccc2)ccc1O` registered a TGI above 100 µM.

The compound `CCOC(=O)c1sc2nc(SC)nc3c2c1NCN3C1CC1` registered a TGI above 100 µM.

Take `CSc1ncc2c(n1)-c1ccccc1OC2N1CCCCC1` (centres undefined): the TGI was above 100 µM. On the same count and under the same terms, next, `O=C1CN2C(Cl)(Cl)C2(c2ccccc2)c2cc(Cl)ccc2N1CC1CC1` (centres undefined): 49.7 µM.

On to `O=C1C2C(C(=O)N1c1ccccc1)C1(Br)c3ccccc3C2(Br)C2C(=O)N(c3ccccc3)C(=O)C21` (centres undefined), for which the TGI is above 100 µM.

For the compound `C#C[C@]1(O)CC[C@H]2[C@@H]3CCC4=CC(=NCCOC(=O)c5cccc6cc7ccccc7nc56)CC[C@@H]4[C@H]3CC[C@@]21C`, the TGI was above 100 µM. As for `O=C1NC2C(=O)N(Cc3ccccc3)C(=O)C2N1` (centres undefined), the TGI was above 100 µM. The same measure, in the same setting: the result for `CC1=NCCc2cc3[nH]c4ccccc4c3cc21` reads 78.9 µM; that for `CC(C)(C)C(=O)N(C(=S)OCc1ccccn1)c1ccccc1`, above 100 µM; that for `CC12OC1(C)C1C(=O)OCC1C2=O` (centres undefined), above 100 µM.

Compound `O=C(CC1=Nc2nnc(CCCCCCCc3nnc4n3C(=O)C(CC(=O)c3ccccc3)=N4)n2C1=O)c1ccccc1` displayed a TGI above 100 µM.

On to `O=S(=O)(O)SC/C=C\CSS(=O)(=O)O`, for which the TGI was above 100 µM.

In turn, `O=C(COc1ccc(/C=C/C(=O)c2ccc(Cl)cc2)cc1)Nc1c(Cl)cccc1Cl` showed a TGI above 100 µM. Regarding `O=C1c2ccccc2-c2nnc(-c3ccc(Br)cc3)cc21`, the GI50 is above 100 µM and the TGI was above 100 µM. On to `O=C(NN1C(=O)CS(=O)(=O)C1c1cccc(F)c1)c1ccncc1` (centres undefined), for which the TGI was above 100 µM. Compound `O=C(O)/C(=C/C(=O)c1ccc(Cl)cc1)NNc1ccc([N+](=O)[O-])cc1[N+](=O)[O-]` returned a TGI above 100 µM. Take `CC(=O)O[C@H]1CCC2(C)C(=CCC3C2CCC2(C)/C(=N/OC(=O)c4ccc(N(CCCl)CCCl)cc4)CCC32)C1` (some centres undefined): the GI50 is above 100 µM and the TGI is above 100 µM.

In turn, `CN(C)CCCNC(=O)N/N=C/c1ccc([N+](=O)[O-])cc1` showed a TGI above 100 µM. As for `COc1cc(NCCCCCN=C(N)N)c2ncccc2c1`, the GI50 was 10.6 µM and the TGI was above 100 µM. For `ClCc1ccc(-c2ccc(Cn3cnc4nc(Cl)nc(Cl)c43)cc2)cc1`, the GI50 is 26.1 µM and the TGI came out at 44.9 µM. For the compound `CCCCN1CCN(c2ccc3nc(-c4ccc5nc(-c6ccc(OC)c(OC)c6)[nH]c5c4)[nH]c3c2)CC1`, the GI50 was 1.85 µM and the TGI was found to be 5.36 µM. With `COc1cc(/C=C2\C(=O)N(c3cc(Cl)ccc3Cl)C(c3ccccc3)S2(=O)=O)cc(OC)c1OC` (centres undefined), the TGI was above 100 µM. Same read-out and setting: the result for `COc1ccc(C2[C@H]3C(=O)N(c4ccc(Cc5ccc(N6C(=O)[C@@H]7ON(c8ccccc8)C(c8ccc(OC)cc8)[C@@H]7C6=O)cc5)cc4)C(=O)[C@H]3ON2c2ccccc2)cc1` (some centres undefined) reads above 100 µM. For `C=C1C(=O)N[C@H](C)C(=O)N[C@@H](CC(C)C)C(=O)N[C@@H](C(=O)O)[C@H](C)C(=O)N[C@@H](CCCN=C(N)N)C(=O)N[C@@H](/C=C/C(C)=C/[C@H](C)[C@H](Cc2ccccc2)OC)[C@H](C)C(=O)N[C@@H](C(=O)O)CCC(=O)N1C` (R[Adda][d(γGlu)][NMeDha][dA]L[dAsp(3S-Me)]-OH; lactam N-7), the GI50 was above 5 µM and the TGI was above 5 µM. As for `[N-]=[N+]=Nc1ccccc1Oc1ccccc1`, the TGI is above 100 µM. Same read-out and setting: next, `Cc1ccc2nc(-c3ccc(N)c(Br)c3)sc2c1`: above 100 µM.

Compound `CCN(CC)C(=S)N/N=C(\C)c1cccc(C)n1` registered a TGI of 13.5 µM. `O=C(NC(=S)Nc1ccccc1)c1ccc([N+](=O)[O-])cc1` displayed a TGI above 100 µM. In turn, `Nc1ccc2c(c1)C(=O)N(OS(=O)(=O)c1ccccc1)C2=O` had a TGI above 100 µM. For the compound `CCN1CCN(c2cc(C)nc(N(CCNc3ccnc4cc(Cl)ccc34)Cc3ccc4c(c3)OCO4)n2)CC1`, the GI50 is 2.95 µM and the TGI worked out at 11.1 µM. As for `O=c1[nH]c(=O)n(C2CC(O)C(CO)O2)c2nc3cc4ccccc4cc3nc12` (centres undefined), the TGI is above 100 µM. Take `CCN(CC)Cc1cc(Nc2c3ccccc3nc3c4ccccc4n(C)c23)cc(CN(CC)CC)c1O`: the TGI was 15.3 µM. Still for that read-out and setting: next, `CC(C)(CN1CCCCC1)C(/C=C/c1ccc(Cl)c(Cl)c1)=N\NC(=O)N/N=C(/C=C/c1ccc(Cl)c(Cl)c1)C(C)(C)CN1CCCCC1`: 3.23 µM. Still for that read-out and setting: the result for `COc1ccc(SCc2cc(OC)c(OC)c(OC)c2)cc1OC` reads above 100 µM; that for `COc1ccc(-c2cc(=O)c3c(OC)cccc3o2)c(OC)c1OC`, above 100 µM. As for `O=C(Nc1ccc(CN2CCOCC2)cc1)c1ccc(-c2cc(Cl)ccc2Cl)o1`, the GI50 is 19.2 µM and the TGI came to 60.7 µM.

For the compound `COc1cc2c(cc1O)NC(=S)[C@@H]1CCCN1C2=O`, the TGI was above 100 µM. Still for that read-out and setting: next, `Cc1cc2[nH]c(Cl)c(/C=C3\C(=O)Nc4ccccc43)c2cc1O`: 17.9 µM; `O=C1OCC=C1COC1OC(CO)C(O)C(O)C1O` (centres undefined): above 100 µM; `CC(=O)OC1CC2(C)C(OC(C)=O)CC1C2(C)C` (centres undefined): above 100 µM. On the same count and under the same terms, the result for `CC(C)(C)C1CCC2c3c([nH]c4ccccc34)C3C(=O)N(c4cccc([N+](=O)[O-])c4)C(=O)C3C2C1` (centres undefined) reads 83.6 µM; that for `Nc1cc(-c2ccccc2)nn1-c1nsc2ccccc12`, above 100 µM; that for `CC1CC(c2ccc([N+](=O)[O-])cc2)=Nc2ccccc2S1` (centres undefined), above 100 µM.

Compound `Oc1ccc2ccccc2c1CN(Cc1c(O)ccc2ccccc12)C1CCCCC1` returned a TGI of 85.4 µM.

As to `Cn1c(=O)[nH]c2nccnc2c1=O`, the TGI is above 10 µM. On the same count and under the same terms, next, `CCOC(=O)Nn1c(C)nnc1CC#N`: above 100 µM. Still for that read-out and setting: the result for `CC1CC2OC(=O)CC2C[C@@H]1O[Si](C)(C)C(C)(C)C` (some centres undefined) reads above 100 µM; that for `O=C1Nc2ccccc2C1=Nc1ccc(S(=O)(=O)Nc2nccs2)cc1`, above 100 µM. `N#CC(/C(CCCC(=O)Nc1cccc([N+](=O)[O-])c1)=N/NC(=O)c1cc2ccccc2cc1O)c1ccccc1` (centres undefined): the TGI was above 100 µM. Regarding `N=C(N)N=Nc1ccc(NN=C(N)N)c2c1ncc1c2nc2sccn21`, the GI50 was 27.6 µM and the TGI was above 100 µM. In the case of `O=C1C2C=CC(n3[nH]c(=O)n(Cc4ccccc4)c3=O)CC2C(=O)N1c1cccc(Cl)c1` (centres undefined), the TGI is above 100 µM. On the same count and under the same terms, the result for `COC1CC(OC2C(C)OC(OC3C(C)OC(OC4C(C)OC(O[C@H]5CC[C@@]6(C)C(=CC[C@]7(O)[C@@H]6C[C@@H](OC(=O)/C=C(\C)C(C)C)[C@@]6(C)[C@]7(O)CC[C@@]6(O)C(C)=O)C5)CC4OC)CC3OC)CC2OC)OC(C)C1O` (some centres undefined) reads above 12.5 µM; that for `CN1C(=O)CC2CCCN2C1=O` (centres undefined), above 100 µM; that for `Cn1ncc2[nH]cnc2c1=S`, above 100 µM. On the same count and under the same terms, next, `CC(=O)O[C@H]1CC2C(C3CCC(C(C)CCC(=O)O)[C@]31C)[C@H](OC(C)=O)C[C@@H]1CC3(CC[C@]21C)OOC1(CC[C@]2(C)C4C[C@H](OC(C)=O)[C@]5(C)C(C(C)CCC(=O)O)CCC5C4[C@H](OC(C)=O)C[C@@H]2C1)OO3` (some centres undefined): 14.2 µM; `COc1ccc(C(N)=O)c(OC)c1OCc1ccccc1`: above 100 µM.

The compound `C/C1=C\[C@H](C)C[C@H](C)OC(=O)C[C@H](c2ccc(O)cc2)NC(=O)[C@H](Cc2ccc(O)c(I)c2)N(C)C(=O)[C@H](C)NC(=O)[C@@H](C)C1` showed a TGI above 25 µM.

The compound `CC12CCC(C(Br)(Br)C1=O)C2(C)C` (centres undefined) gave a TGI above 42.2 µM. `CCOP(=O)(O)C(Nc1ccc(N=Nc2ccccc2)cc1)c1ccc(C(Nc2ccc(N=Nc3ccccc3)cc2)P(=O)(O)OCC)cc1` (centres undefined) returned a TGI of 61.4 µM. Turning to `O=C(NCc1ccc(Cl)cc1Cl)c1ccc(NC2=C(Cl)C(=O)N(Cc3ccccc3)C2=O)cc1`, the GI50 is 77 µM and the TGI is above 100 µM. As for `CCCCc1ccc(Nc2cc(=O)n(C)c(=O)[nH]2)cc1`, the TGI was above 100 µM. `C[C@@H]1C[N+]2([O-])[C@H]3C4=CCC[C@@H]4CC[C@H]3[C@@]3(C)OC(=O)CC[C@]34CC[C@H]1[C@@H]42` (some centres undefined): the GI50 was above 60 µM and the TGI was above 60 µM. Compound `CNC(=S)Nc1sc2c(c1C#N)CCCC2` came in with a TGI above 75 µM. `CC(C)(C)OC(=O)C1C(=O)NC(=O)CC1CC(OCc1ccccc1)C(COCc1ccccc1)OCc1ccccc1` (centres undefined) displayed a TGI above 100 µM. In the case of `[Cl-].[Cl-].[Cl-].[O-]c1cccc2cccnc12.[O-]c1cccc2cccnc12.[O]=[Mo]`, the GI50 is 4.35 µM and the TGI amounted to 30.3 µM. The compound `COc1ccc(/C=N/c2nc3cc4sc(/N=C/c5ccc(OC)cc5)nc4cc3s2)cc1` showed a TGI above 100 µM. `CN(C)CCC=C1c2ccccc2C=Cc2ccccc21` came in with a TGI of 22.1 µM. With `O=NN(CCCl)C(=O)NCCCl`, the GI50 was above 449 µM; the TGI was 250 µM and 370 µM and > 500 µM.

Take `COc1cc(C[C@@H](C)N)cc(OC)c1`: the TGI is above 100 µM. Same read-out and setting: the result for `COP(=O)(OC)/C(=C/c1c[nH]c2ccccc12)C(=O)O` reads above 100 µM; that for `O=C1/C(=C/c2cc3c(=O)c4ccccc4sc3s2)NC(=S)N1c1ccccc1`, above 100 µM; that for `COc1cc(C=O)cc(/C=N/c2ccccn2)c1O`, above 100 µM. Same read-out and setting: the result for `O=C1C2c3[nH]c4ccccc4c3C3CCCC3C2C(=O)N1c1ccccc1` (centres undefined) reads above 100 µM; that for `CCOC(=O)C1=C(NC(C)(C)C)OC/C1=N\NC(=O)Cc1ccccc1`, above 100 µM; that for `CC(=O)C1=C(c2ccccc2)N(C2OC(CO)C(O)C(O)C2O)C(S)=C(C#N)C1c1ccc(Cl)cc1` (centres undefined), above 100 µM.
